Laboratory results: PubChem BioAssay AID588342 (National Center for Advancing Translational Sciences (NCATS), 2011)
The whole screen tested about 360,000 compounds, of which about 25,000 (6.9%) were called active. This list was built around the results that the source calls inconclusive (neither active nor inactive); the mix of calls is not that of the screen. Calls come from the whole dose curve; as a rule, active = well fitted inhibition curve with a large enough effect; inconclusive = small, poorly fitted or top-dose-only effect; inactive = flat fitted curve, though single readings scatter. Potencies of inconclusive entries are doubtful fits and often do not repeat.

Biological target: Luciferin 4-monooxygenase (Photinus pyralis) (UniProt P08659)
Test: qHTS profiling assay for firefly luciferase inhibitor/activator using purifed enzyme and Km concentrations of substrates (counterscreen for miR-21 project); note: nearly all actives have a fitted effect of over 55% in size
Conditions: purified FLuc, luminescence inhibition; series mostly up to 57.5 µM
In short: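 Purified P. pyralis luciferase, 10 nM final, with Km-level 10 uM D-luciferin and 10 uM ATP in 50 mM Tris acetate pH 7.5, 10 mM Mg acetate, 0.01% Tween-20, 0.05% BSA; 6-point qHTS titration about 60 µM downward; luminescence read.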
Potency is the fitted concentration of half-maximal effect; tags give direction and shape of the fitted curve.

Sequence of UniProt P08659 (P08659 whole entry, looked up): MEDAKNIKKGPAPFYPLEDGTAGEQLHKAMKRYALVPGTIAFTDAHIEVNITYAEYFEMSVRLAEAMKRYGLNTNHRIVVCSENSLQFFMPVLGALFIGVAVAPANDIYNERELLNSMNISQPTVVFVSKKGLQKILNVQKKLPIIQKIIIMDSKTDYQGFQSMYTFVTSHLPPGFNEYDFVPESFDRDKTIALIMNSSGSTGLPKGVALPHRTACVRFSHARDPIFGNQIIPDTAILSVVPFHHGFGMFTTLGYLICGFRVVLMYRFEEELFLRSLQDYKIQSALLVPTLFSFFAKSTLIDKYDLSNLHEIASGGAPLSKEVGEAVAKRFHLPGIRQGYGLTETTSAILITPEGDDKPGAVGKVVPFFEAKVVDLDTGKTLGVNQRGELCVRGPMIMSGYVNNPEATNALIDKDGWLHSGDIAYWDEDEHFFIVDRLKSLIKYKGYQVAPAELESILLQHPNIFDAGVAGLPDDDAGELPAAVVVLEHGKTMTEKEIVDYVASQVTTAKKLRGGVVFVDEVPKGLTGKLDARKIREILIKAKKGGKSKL

Compound | Potency
CC(NC(=O)CSc1nc(C2CC2)n(-c2ccccc2)n1)c1ccco1 (centres undefined) | inactive
CCCCC(=O)Nc1nc2ccc(C(=O)OC)cc2s1 | inconclusive: 10.7 µM [inhibitor, partial curve]
CCc1ccc(C2=C/C(=C/c3cccnc3)C(=O)O2)cc1 | inconclusive: 9.53 µM [inhibitor, partial curve]
CC(C)(C)c1ccc(CNc2ccc([N+](=O)[O-])cn2)cc1 | active: 12 µM
Cc1cc(C)c2c(N)c(C(=O)NCc3ccco3)sc2n1 | inconclusive: 23.9 µM [inhibitor, partial curve]
O=C(CSc1nnc(NCc2ccccc2)s1)N1CCOCC1 | inconclusive: 30.1 µM [inhibitor, partial curve, poor fit]
COC(=O)c1ccc(OCCOc2ccccc2C)cc1 | inconclusive: 23.9 µM [inhibitor, single point]
COc1ccc(/C=N/NC(=O)c2cccnc2)cc1 | inconclusive: 16.9 µM [inhibitor, partial curve]
O=C(c1ccccc1)N1c2nc(-c3ccco3)nn2C2(CCCCC2)[C@@H]2CCCC[C@@H]21 | inactive
Clc1ccc(OCc2nnc(-c3ccccc3Br)o2)c(Cl)c1 | active: 6.01 µM
Cc1cc(C)cc(NC(=O)Cc2noc3ccccc23)c1 | inactive
CCOC(=O)c1sc(=NC(=O)CCSc2ccccc2)n(C)c1C | inconclusive: 3.38 µM [inhibitor, partial curve, poor fit]
Cc1ccc(C2CC(c3ccccc3)=NN2c2ccccc2)o1 (centres undefined) | inconclusive: 23.9 µM [inhibitor, single point]
Cc1cc(C)cc(NC(=O)C(Cc2ccccc2)NS(=O)(=O)c2ccc3c(c2)CCC(=O)N3)c1 (centres undefined) | inactive
OC(c1ccc(Cl)cc1)C(O)c1nc2ccccc2[nH]1 (centres undefined) | inactive
Nc1nc(SCC(=O)Nc2ccc(Cl)c([N+](=O)[O-])c2)n[nH]1 | inactive
O=C(NNc1nc2ccccc2s1)Nc1ccccc1 | inconclusive: 0.953 µM [inhibitor, full curve]
OCCC1CN(Cc2cnc(-c3ccc(Cl)cc3)nc2)CCN1C1CCCC1 (centres undefined) | inactive
C/C(=N\NC(=S)Nc1ccccc1C)c1ccc(O)cc1 | active: 21.3 µM
Cc1ccc(-c2cc(C(=O)N/N=C/c3c(C)nn(C)c3C)c3ccccc3n2)cc1C | active: 0.601 µM
COc1cc(/C=C(/C(=O)c2cccs2)c2nc3ccccc3[nH]2)ccc1O | active: 6.75 µM
Cc1ccc(Cn2ccc(NC(=O)c3cc(C)on3)n2)cc1 | inconclusive: 16.9 µM [inhibitor, partial curve]
CCOc1ccc(N/C(C)=C/C(=O)c2ccc3c(c2)OCCO3)cc1 | active: 5.36 µM
COc1ccc(C(=O)Nc2ccc(S(=O)(=O)Nc3onc(C)c3C)cc2)cc1 | active: 21.3 µM
Cc1ccc2nc(-c3ccccc3)c(CN3CCSCC3)n2c1 | inconclusive: 30.1 µM [inhibitor, partial curve, poor fit]

Compound | Potency
COc1cccc2cc(C(=O)NC(C)c3ccccc3)c(=O)oc12 (centres undefined) | inconclusive: 21.3 µM [inhibitor, partial curve, poor fit]
CCOc1ccc(-c2nc(CSc3nnc(C)s3)cs2)cc1OC | inconclusive: 26.9 µM [inhibitor, partial curve]
CCOC(=O)C1(C)C=C(Nc2cccc(C(=O)O)c2)C(=O)N1c1ccccc1 (centres undefined) | active: 23.9 µM
CCn1c(=S)sc2c(=O)n(CC(=O)Nc3cc(OC)ccc3OC)c(C)nc21 | inactive
Cc1ccc(NC(=O)COc2cccc(/C=C3\SC(=S)N(CCC(=O)O)C3=O)c2)cc1Cl | inconclusive: 9.53 µM [inhibitor, partial curve]
COc1cccc(/C=N/NC(=O)CCCc2ccc(OC)c(C)c2)c1 | active: 19 µM
O=C1OC(Nc2nccs2)c2ccccc21 (centres undefined) | inactive
N#CC1(NC(=O)CSc2nnc(Nc3ccccc3F)s2)CCCC1 | inconclusive: 15.1 µM [inhibitor, partial curve]
Cc1ccc(Nc2ncnc3sc4c(c23)CCC(C)C4)cc1C (centres undefined) | inconclusive: 37.9 µM [inhibitor, partial curve, poor fit]
c1ccc(-n2cc(CNCCc3cscn3)c(-c3ccc4c(c3)OCO4)n2)cc1 | inconclusive: 26.9 µM [inhibitor, single point]
COc1ccccc1C(=O)NC(=S)Nc1ccc(N2CCOCC2)c(Cl)c1 | inconclusive: 30.1 µM [inhibitor, partial curve, poor fit]
Cc1csc(=O)n1CC(=O)OCC(=O)NCc1ccc(F)cc1 | inactive
CN(C(=O)c1nn(C)c2c1CSc1ccccc1-2)c1ccccc1Cl | inconclusive: 21.3 µM [inhibitor, partial curve, poor fit]
O=C(COc1ccc(Cl)cc1Cl)NN1C(=O)/C(=C\c2ccc(Cl)cc2)SC1=S | inconclusive: 2.39 µM [inhibitor, partial curve, poor fit]
COC(=O)c1ccc(N2CCN(c3ccccc3)CC2)c(N)c1 | inconclusive: 4.26 µM [inhibitor, partial curve, poor fit]
COc1cccc(NC(=O)NCc2c(-c3ccccc3)noc2C)c1 | inactive
CC1CC1c1ccc(/C=C(\C#N)C(=O)Nc2cc(Cl)ccc2Cl)o1 (centres undefined) | inactive
Cc1ccc2sc(NNC(=O)c3cc(-c4cccs4)nc4ccccc34)nc2c1C | inactive
COc1ccc(-n2cc(CNCC3CC(=O)N(C4CC4)C3)c(-c3ccccc3Cl)n2)cc1 (centres undefined) | inconclusive: 37.9 µM [inhibitor, single point]
COCCSc1nc(N)c(NC(=O)c2ccco2)c(=O)[nH]1 | inactive
O=C(NNC(=O)c1cccs1)c1ccc(F)cc1 | inactive
O=C(C1CCCO1)N1CCN(c2c3c(nc4cc(-c5ccc(F)cc5)nn24)CCC3)CC1 (centres undefined) | active: 4.78 µM
CN1CCN(C(=O)c2cc(-c3ccco3)on2)CC1 | inconclusive: 23.9 µM [inhibitor, partial curve, poor fit]
Cc1ccc(N=Nc2c(=O)[nH]n3c(=O)cc(C)[nH]c23)cc1 | active: 15.1 µM
